# The supplement of paper PMC4967469
# By IC50 is meant the dose at which the fit gives 50% viability; where the fit passes the top or lowest dose, that dose stands as a limit. The AUC spans the tested range (256-fold, ending at the top dose) of the same fit; values near 1 show little effect. Where an entry number is given, a second screen of the drug exists; the two often differ.
# Compound: CS(=O)(=O)N1CCN(Cc2cc3nc(-c4cccc5[nH]ncc45)nc(N4CCOCC4)c3s2)CC1 [GDC0941]
# Experiment: Viability of human cancer cell lines after 72 h of drug (GDSC screen)
# Conditions: screen: GDSC drug entry 1058
# Experimental: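 Human cancer cell lines in 384-well plates, medium with 10% serum, drug for 72 h over a 256-fold dose range (nine 2-fold or five 4-fold steps up to the top dose). Adherent lines were fixed and stained with the nucleic acid dye Syto60, suspension lines read with resazurin; signal relative to control wells, capped at 0 and 100%. One two-parameter sigmoid per drug and line, fitted in a mixed model over all curves with the slope shared within a line.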
Cell Line,AUC,IC50 [µM]
"ES7 (Ewing sarcoma, adherent, top dose 4 µM)",0.539,0.321
"ES8 (Ewing sarcoma, adherent, top dose 4 µM)",0.599,0.458
"ES-2 (ovary, adherent, top dose 4 µM)",0.933,> 4
"ESO26 (oesophagus, adherent, top dose 4 µM)",0.712,0.951
"ESO51 (oesophagus, semi-adherent, top dose 4 µM)",0.645,0.744
"ESS-1 (endometrium, adherent, top dose 4 µM)",0.879,3.4
"ETK-1 (biliary tract, adherent, top dose 4 µM)",0.79,2.05
"EVSA-T (breast, adherent, top dose 4 µM)",0.528,0.295
"EW-1 (Ewing sarcoma, semi-adherent, top dose 4 µM)",0.889,3.91
"EW-3 (Ewing sarcoma, adherent, top dose 4 µM)",0.711,1.09
"EW-7 (Ewing sarcoma, semi-adherent, top dose 4 µM)",0.719,0.952
"EW-11 (Ewing sarcoma, adherent, top dose 4 µM)",0.891,> 4
"EW-13 (Ewing sarcoma, suspension, top dose 4 µM)",0.737,1.29
"EW-16 (Ewing sarcoma, adherent, top dose 4 µM)",0.724,1.12
"EW-18 (Ewing sarcoma, suspension, top dose 4 µM)",0.435,0.163
"EW-22 (Ewing sarcoma, adherent, top dose 4 µM)",0.769,1.45
"EW-24 (Ewing sarcoma, semi-adherent, top dose 4 µM)",0.943,> 4
"EoL-1-cell (haematopoietic neoplasm, suspension, top dose 4 µM)",0.684,0.762
"FADU (head and neck, adherent, top dose 4 µM)",0.746,1.23
"FLO-1 (oesophagus, adherent, top dose 4 µM)",0.574,0.435
"FTC-133 (thyroid, adherent, top dose 4 µM)",0.92,> 4

Cell Line,AUC,IC50 [µM]
"FU97 (stomach, adherent, top dose 4 µM)",0.606,0.493
"FU-OV-1 (ovary, adherent, top dose 4 µM)",0.833,3.83
"Farage (B-cell lymphoma, suspension, top dose 4 µM)",0.34,0.0983
"G-361 (melanoma, adherent, top dose 4 µM)",0.857,3.04
"G-401 (kidney, adherent, top dose 4 µM)",0.772,1.7
"G-402 (soft tissue, adherent, top dose 4 µM)",0.55,0.359
"GA-10 (Burkitt lymphoma, suspension, top dose 4 µM)",0.465,0.204
"GAMG (glioma, adherent, top dose 4 µM)",0.577,0.411
"GB-1 (glioma, adherent, top dose 4 µM)",0.899,> 4
"GCIY (stomach, adherent, top dose 4 µM)",0.583,–
"GDM-1 (acute myeloid leukaemia, suspension, top dose 4 µM)",0.803,1.88
"GI-1 (glioma, adherent, top dose 4 µM)",0.927,> 4
"GI-ME-N (neuroblastoma, adherent, top dose 4 µM)",0.864,> 4
"GMS-10 (glioma, adherent, top dose 4 µM)",0.979,> 4
"GOTO (neuroblastoma, adherent, top dose 4 µM)",0.951,> 4
"GR-ST (lymphoblastic leukaemia, suspension, top dose 4 µM)",0.853,> 4
"GRANTA-519 (B-cell lymphoma, suspension, top dose 4 µM)",0.708,0.901
"GT3TKB (stomach, adherent, top dose 2 µM)",0.943,> 2
"H4 (glioma, adherent, top dose 4 µM)",0.665,0.714
"H9 (lymphoid neoplasm, suspension, top dose 4 µM)",0.992,> 4
"H290 (mesothelioma, adherent, top dose 4 µM)",0.782,1.52

Cell Line,AUC,IC50 [µM]
"H513 (mesothelioma, semi-adherent, top dose 4 µM)",0.942,> 4
"H2369 (mesothelioma, adherent, top dose 4 µM)",0.923,> 4
"H2373 (mesothelioma, adherent, top dose 4 µM)",0.701,1.07
"H2461 (mesothelioma, adherent, top dose 4 µM)",0.91,> 4
"H2591 (mesothelioma, adherent, top dose 2 µM)",0.793,1.23
"H2595 (mesothelioma, adherent, top dose 4 µM)",0.839,> 4
"H2731 (mesothelioma, adherent, top dose 4 µM)",0.838,3.29
"H2795 (mesothelioma, adherent, top dose 4 µM)",0.779,1.61
"H2869 (mesothelioma, adherent, top dose 4 µM)",0.939,> 4
"H3118 (head and neck, adherent, top dose 4 µM)",0.554,0.356
"H3255 (lung adenocarcinoma, adherent, top dose 4 µM)",0.93,> 4
"H-EMC-SS (chondrosarcoma, adherent, top dose 4 µM)",0.887,> 4
"HA7-RCC (kidney, adherent, top dose 4 µM)",0.692,0.917
"HAL-01 (lymphoblastic leukaemia, suspension, top dose 4 µM)",0.242,0.0504
"HARA (lung squamous cell carcinoma, adherent, top dose 4 µM)",0.762,1.66
"HC-1 (hairy cell leukaemia, suspension, top dose 4 µM)",0.925,> 4
"HCC38 (breast, adherent, top dose 4 µM)",0.964,> 4
"HCC202 (breast, adherent, top dose 4 µM)",0.788,2.57
"HCC1187 (breast, suspension, top dose 4 µM)",0.907,> 4
"HCC1395 (breast, adherent, top dose 4 µM)",0.862,> 4
"HCC1419 (breast, adherent, top dose 4 µM)",0.786,2.59
